Data taken from PubChem BioAssay AID485294 (National Center for Advancing Translational Sciences (NCATS), 2010).
The campaign covered roughly 370,000 compounds. About 150 (0.041%) were called active. Inconclusive means that the source gave no clear call. Such entries were picked first, then a sample of the others. The call rests on the fitted dose curve; in most records, active means well fitted inhibition curve with a large enough effect; inconclusive means small, poorly fitted or top-dose-only effect; inactive means flat fitted curve, though single readings scatter. Potencies of inconclusive entries are left out as doubtful fits.

Molecular target: Beta-lactamase (Escherichia coli (strain K12)) (UniProt P00811)
Sequence of UniProt P00811 (P00811 whole entry, looked up): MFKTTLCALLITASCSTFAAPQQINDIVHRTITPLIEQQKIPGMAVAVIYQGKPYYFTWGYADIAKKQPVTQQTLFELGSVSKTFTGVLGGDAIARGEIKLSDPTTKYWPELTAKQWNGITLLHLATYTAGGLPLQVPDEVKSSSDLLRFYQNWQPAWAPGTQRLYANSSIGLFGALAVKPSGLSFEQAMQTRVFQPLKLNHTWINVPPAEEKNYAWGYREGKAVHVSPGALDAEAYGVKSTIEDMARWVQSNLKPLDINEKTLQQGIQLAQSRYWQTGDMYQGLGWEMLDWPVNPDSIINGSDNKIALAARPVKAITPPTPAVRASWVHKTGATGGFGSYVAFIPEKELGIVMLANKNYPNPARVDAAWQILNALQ
Test: qHTS Inhibitors of AmpC Beta-Lactamase (assay with detergent); further: nearly all actives have a fitted effect of over 25% in size
Conditions: AmpC hydrolysis of nitrocefin, absorbance 480 nm, 0.01% Triton; series mostly up to 114 µM
Summary of the method: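 20 mM phosphate pH 7.0 + 0.01% (detergent screen) or 0.0001% Triton X-100; 5.3 nM AmpC reagent; cpd preinc 15 min RT; nitrocefin (800 uM stock) to start; A480 q20 s × 4 min; Activity was normalised to no-enzyme and no-compound control wells.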
Potency means the concentration at half of the fitted maximal effect; tags describe the fitted curve by direction and shape.

SMILES | Potency
CCc1nnc(NC(=O)c2cc(=O)c3cc(C)c(C)cc3o2)s1 | inactive
COc1cccc(-n2nc(C(C)=O)c(C#N)c2-c2ccco2)c1 | inconclusive [inhibitor, full curve, poor fit]
O=C(NCCN1CCCC(O)C1)c1cc(COc2c(F)cccc2F)on1 (configuration not stated) | inconclusive [inhibitor, full curve, poor fit]
O=C1CC(c2cccs2)c2cc3c(cc2N1)OCCO3 (configuration not stated) | inconclusive [inhibitor, full curve, poor fit]
c1ccc(CSc2nnc(-c3cccs3)o2)cc1 | inconclusive [inhibitor, full curve, poor fit]
CCOCCCNC(=O)C1CCCN(S(=O)(=O)CC)C1 (configuration not stated) | inconclusive [inhibitor, partial curve]
O=S(=O)(c1ccc(Cl)cc1)N1CCN(C2CCN(Cc3ccccc3)CC2)CC1 | inconclusive [inhibitor, full curve, poor fit]
COc1ccc(S(=O)(=O)N2CCN(C(=O)CC(C)C)CC2)cc1 | inconclusive [inhibitor, full curve, poor fit]
C(=N\Nc1nc2ccccc2[nH]1)/c1ccccn1 | inconclusive [inhibitor, single point]
Cn1c(=O)c2c(nc(SCc3ccc(F)cc3)n2C)n(C)c1=O | inconclusive [inhibitor, partial curve]
Cc1ccc(Nc2nc(NCCCN3CCOCC3)nc(N)c2[N+](=O)[O-])cc1C | inconclusive [inhibitor, full curve, poor fit]
O=C(CN1CCc2ccccc2C1)Nc1cccc(S(=O)(=O)N2CCOCC2)c1 | inconclusive [inhibitor, full curve, poor fit]
CC12CCC(c3c(C(=O)O)nn(-c4ccccc4)c31)C2(C)C (configuration not stated) | inconclusive [inhibitor, partial curve]
CC(C)(C)c1ccc(C(=O)NCc2nnc(SCC(=O)NCC3CCCO3)o2)cc1 (configuration not stated) | inactive
CCOC(=O)C1CCN(C(=O)c2cc(S(=O)(=O)N3CCCCC3)ccc2C)CC1 | inactive
O=C(Cn1cnc2c(nnn2-c2ccccc2)c1=O)N1CCC(Cc2ccccc2)CC1 | inconclusive [inhibitor, full curve]
CCN(CC)C(=O)CSc1nnc(CCN)o1 | inconclusive [inhibitor, partial curve]
CC(Cc1ccccc1)C(=O)NCc1nc2ccccc2s1 (configuration not stated) | inconclusive [inhibitor, partial curve, poor fit]
CCOC(=O)c1c(NC(=O)COC(=O)CC(NC(C)=O)c2ccccc2)sc(C(=O)NC)c1C (configuration not stated) | inactive
CCS(=O)(=O)Nc1cccc(C(=C2CCCCC2)c2cnc[nH]2)c1 | inconclusive [inhibitor, full curve, poor fit]
COc1ccccc1/C=C1\SC(=O)N(CCC(=O)N2CCCCC2CCO)C1=O (configuration not stated) | inactive
CCCCCOc1ccc(C(=O)N(Cc2ccco2)C2CCS(=O)(=O)C2)cc1 (configuration not stated) | inconclusive [inhibitor, full curve, poor fit]
COc1ccccc1C(c1nnnn1CCc1ccccc1)N1CCN(c2ccccc2)CC1 (configuration not stated) | inactive

SMILES | Potency
Nc1nc(N2CCCCC2)c(C=O)c(N2CCCCC2)n1 | inactive
COc1cc(C(=S)N2CCOCC2)ccc1OC(=O)/C=C/c1ccco1 | inactive
Cc1cc(C)nc(N2CCCC(C(=O)NCCc3ccccc3F)C2)n1 (configuration not stated) | inconclusive [inhibitor, full curve, poor fit]
Cc1cc(=O)oc2c3c(cc(OCC(=O)Nc4cccnc4)c12)OC(C)(C)CC3 | inconclusive [inhibitor, single point]
Cn1cc(S(=O)(=O)NC2CCCC2)c(=O)n(C)c1=O | inconclusive [inhibitor, full curve]
Cn1c(SCC(=O)Nc2ccccc2F)nnc1-c1cccnc1 | inconclusive [inhibitor, full curve]
COc1cc(/C=C2/SC(=S)N(Cc3ccccc3)C2=O)ccc1OCC(=O)O | inconclusive [inhibitor, full curve, poor fit]
O=C(Oc1ccc(-c2nnco2)cc1)c1ccc(F)c(S(=O)(=O)N2CCOCC2)c1 | inconclusive [inhibitor, partial curve]
Cc1cccc(OCCCN2C(=O)C(=O)c3cc(C)ccc32)c1 | inconclusive [inhibitor, single point]
CCCC(NC(=O)CCc1c(C)c2cc3c(-c4ccccc4)coc3cc2oc1=O)C(=O)O (configuration not stated) | inconclusive [inhibitor, single point]
COc1ccc2nc(N3CCCC(O)C3)c(C#N)cc2c1 (configuration not stated) | inconclusive [inhibitor, partial curve, poor fit]
CCC(C)[C@H](NC(=O)N1c2ccccc2NC(=O)[C@@H]1C(C)C)C(=O)N[C@@H](Cc1ccccc1)C(=O)O (some centres not stated) | inconclusive [inhibitor, full curve, poor fit]
O=C(NC1CCCc2ccccc21)C1CCN(S(=O)(=O)c2ccccc2F)CC1 (configuration not stated) | inconclusive [inhibitor, full curve, poor fit]
C[C@H]1CCC[C@]2(O[C@@H](CCO)C[C@H](O)[C@H]2O)O1 | inconclusive [inhibitor, full curve, poor fit]
COc1cc(OC)c(OC)cc1CN1CCN(c2ccccc2OC)CC1 | inconclusive [inhibitor, full curve, poor fit]
COc1ccccc1Nc1cc(C(=O)N2CCc3ccccc3C2)c2ccccc2n1 | inconclusive [inhibitor, full curve]
COc1cc(NC(=O)c2cccs2)ccc1NC(=O)Cc1ccccc1 | inconclusive [inhibitor, full curve]
O=c1[nH]c(SCc2cccc(Cl)c2)nc2ccccc12 | inconclusive [inhibitor, single point]
Cc1cc2oc(=O)ccc2cc1[N+](=O)[O-] | inconclusive [inhibitor, full curve, poor fit]
Cc1ccc2nc(-c3ccc(NC(=O)COc4c(C)ccc(C)c4C)cc3)sc2c1 | inactive
CCc1ccc(OCC(=O)N/N=C\c2ccco2)c([N+](=O)[O-])c1 | inconclusive [inhibitor, partial curve]
CC1(C)CC(=O)N(CC(=O)NCc2ccccc2)c2ccccc2S1(=O)=O | inconclusive [inhibitor, partial curve, poor fit]
COc1ccc(CCNC(=O)CCN2C(=O)c3cccc4cccc(c34)C2=O)cc1OC | inconclusive [inhibitor, full curve]

SMILES | Potency
C=CCN(C(=O)CNS(=O)(=O)c1ccccc1)C(C(=O)NCCOC)c1cccnc1 (configuration not stated) | inconclusive [inhibitor, full curve, poor fit]
CCOc1cc(CNCCSc2nnnn2-c2ccccc2)cc(Cl)c1OC | inactive
Cc1ccc(CNC(=O)C2CCCN(C(=O)N(C)C)C2)cc1 (configuration not stated) | inconclusive [inhibitor, full curve, poor fit]
C=CCNC(=S)Nc1ccc(Br)cc1F | inconclusive [inhibitor, partial curve, poor fit]
CC(C)Oc1ccc(CNS(=O)(=O)c2cnc(N)nc2)cc1 | inactive
CCOc1ccccc1NC(=O)C1CCCN(S(=O)(=O)c2ccc3c(c2)C(C)(C)C(=O)N3C)C1 (configuration not stated) | inconclusive [inhibitor, partial curve, poor fit]
CC(C)Cn1cnc2c1c(=O)n(C)c(=O)n2C | inconclusive [inhibitor, full curve]
Cc1ccc2cc(C)c(NCCO)nc2c1 | inconclusive [inhibitor, full curve, poor fit]
CCC(C)NC(=O)C1(C)CCC(=O)N1CCc1ccc(OC)c(OC)c1 (configuration not stated) | inconclusive [inhibitor, single point]
CSCCC(NC(=O)c1ccco1)C(=O)N1CCN(c2ccccc2O)CC1 (configuration not stated) | inactive
CCC(=O)Nc1cccc(-c2csc(-c3ccccc3)n2)c1 | inactive
Nc1cc(N)nc(SCc2cccnc2)n1 | inactive
O=S(=O)(c1ccc2ccccc2c1)n1nc(-c2ccco2)nc1NCc1cccc(Cl)c1 | inactive
CCCn1c(O)c(N=NC(=O)c2ccco2)c2ccccc21 | inactive
CC(=O)NCCOc1ccc2oc3ccccc3c2c1 | inactive
COc1cccc(/C=N/NC(=O)C(=O)N/N=C/c2cccc(OC)c2O)c1O | inconclusive [inhibitor, full curve, poor fit]
CCc1ccc(-n2c(SCC(=O)c3ccc4c(c3)NC(=O)CO4)nc3ccccc3c2=O)cc1 | inconclusive [inhibitor, single point]
CCOc1ccc(NC(=O)CN(C)C(=O)C2CC(=O)N(c3ccc4c(c3)OCCO4)C2)cc1OCC (configuration not stated) | inconclusive [inhibitor, full curve, poor fit]
O=C(CNC(=O)c1ccccc1Br)N/N=C/c1cccs1 | inconclusive [inhibitor, single point]
C=C(C)COc1ccc(-c2[nH]ncc2-c2ccc(Br)cc2)c(O)c1 | inactive
CCc1noc(C)c1C(=O)Nc1ccc(C#N)cc1 | inconclusive [inhibitor, partial curve, poor fit]
